# Test results as given in the RNAGym collection of RNA variant scans (doi:10.1073/pnas.2313332121).
# Variants at the floor of the assay are shown more often than the library holds them.
# B1: TPR 5TU (parent)
# chain: GGAUCUUCUCGAUCUAACAAAAAAGACAAAUCUGCCACAAAGCUUGAGAGCAUCUUCGGAUGCAGAGGCGGCAGCCUUCGGUGGCGCGAUAGCGCCAACGUUCUCAACUAUGACACGCAAAACGCGUGCUCCGUUGAAUGGAGUUUAUCAUG
# Variants of: B1
# Test: polymerase ribozyme fitness, log enrichment relative to wild type (log ratio); higher = more active; in vitro selection for triplet polymerase activity
# In short: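 Streptavidin-bead capture of gel-excised extended constructs, followed by RT-PCR, closed a single triplicate in vitro selection round. That round began by annealing PCR-built, transcribed mutant libraries of each subunit of a heterodimeric triplet polymerase ribozyme with a biotinylated primer, the partner subunit and triplets, then incubating them frozen at −7 °C. After Illumina sequencing of inputs and outputs, genotypes needed ≥10 input reads and ≥1 read per output. Fitness is the base-2 logarithm of genotype enrichment over wild-type enrichment, using inverse-variance-weighted replicate averages.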
row,Variant,polymerase ribozyme fitness (log ratio)
1,G48A G50U C85U G140A U148A,≤ -4.2
2,A49C G88U,≤ -4.2
3,A49C G59C A137G U146C,≤ -4.2
4,G48A C72G,≤ -4.2
5,A49C A52G G58C A91U A137U U145G,≤ -4.2
6,A49C U56A A91U C93U C149U,≤ -4.2
7,A49G A52C A73G C75G G84U C93A A107U U111G U135C G140A,≤ -4.2
8,A47U G94A U134G,-1.69
9,A49C G141A,-3.79
10,A49C G62A G94C A122U C132G A142C,≤ -4.2
11,A49C G62A C63A C131G C132A,≤ -4.2
12,A47C U53A G140A U144C,≤ -4.2
13,A49U G58A U102G A122U,-0.217
14,G48A A49C U53A G100A,≤ -4.2
15,G50A A60U C96U U127A,-3.79
16,A47C G68A C76G G94A,≤ -4.2
17,A49C C75U C85U C96A,≤ -4.2
18,A47G G84U U135A,-2.45
19,A47C G59C G86A,≤ -4.2
20,G48U G50A U56G C87A A106U,≤ -4.2
21,A47U A52C C57U G67A C96G,≤ -4.2
22,A49G C114U U144A,-4.06
23,G48A C85A A89U A98U A113G G117A,≤ -4.2
24,G48A U61A A91C C131A U139C,≤ -4.2

row,Variant,polymerase ribozyme fitness (log ratio)
1,A47G G84U,-1.59
2,A47G G84C,-2.56
3,A49U C85G,-2.96
4,A49C C93A C103G G117U C149G,≤ -4.2
5,A49C G70A C75G C93G A97C C116G C118G,≤ -4.2
6,A47C G50A U102C U146A,-2.55
7,A49C G80A C85U C93A C108U G133U,≤ -4.2
8,A47C G58C A64U U104C A107G,≤ -4.2
9,A47U G48U G80C C93U,≤ -4.2
10,G48A C57A U144G,0.472
11,A47U A97G A98G C116U A150U,0.886
12,G48C C51U C69A C116G,≤ -4.2
13,A47U U53C C93U C103A G124U A142G G143A,≤ -4.2
14,A47C U61C C93G C103G,≤ -4.2
15,A49C C76A,≤ -4.2
16,A49C C75A G94C A97G A120C C125U G133A,≤ -4.2
17,A47G U102C A142C C149U,≤ -4.2
18,G50A A52C G81C,-2.82
19,A49C C79G G94C,≤ -4.2
20,A47G C95U U101C C125U C129G U134A,≤ -4.2
21,G48U G50C C85G A98U C99U C149U,≤ -4.2
22,A47G U55G A98U U148A,≤ -4.2
23,A47G G50A C85U C99A G124C U127G,≤ -4.2
24,A49C U55A A66U C69G A91U U109A U135G,≤ -4.2

row,Variant,polymerase ribozyme fitness (log ratio)
1,A47G G84U C149U,-3.35
2,A49C C76G A91C A98G C116A G141C,≤ -4.2
3,A49G C69G G88A G133U A147U U148G,≤ -4.2
4,A47U C75U,-1.41
5,A49C G58C C95U U127G G152C,≤ -4.2
6,G48A G50U U61G C69U A91G,≤ -4.2
7,A49C U53A C96G,≤ -4.2
8,A49C U61G A91U C118A G141U U148A,≤ -4.2
9,A49G C99G G126U G143A U144G,≤ -4.2
10,A49C A98G,≤ -4.2
11,A49G G50A C95U U145C,-2.54
12,G48C C125G,-0.571
13,A49C A73U A91U,≤ -4.2
14,G48A G70A G83A G143U,≤ -4.2
15,A49U A73U,≤ -4.2
16,A49C C51U C76A A113U G126A,≤ -4.2
17,A47G C96U G124C,-1.06
18,A49C G100C A121G,≤ -4.2
19,G48C C75A C96G C108U,≤ -4.2
20,G50A G58A C99U U144A,≤ -4.2
21,G50A C51U A73G C76U A89U C93U,≤ -4.2
22,A49C G83U C93G C103U,≤ -4.2
23,G48A U55A G58A C108U G117A,≤ -4.2
24,A49C C79U C103G C105A U139A G141C U148G,≤ -4.2

row,Variant,polymerase ribozyme fitness (log ratio)
1,A47U G50C C93A C96G,≤ -4.2
2,A49G C51U C95G A137G U144A,≤ -4.2
3,G50A C75G G88C G143C,≤ -4.2
4,G48C G94U C103U G140A,≤ -4.2
5,A49C C99U U135G C149U,≤ -4.2
6,A49U A110U G117U,≤ -4.2
7,G48A C54A G84C G143A,≤ -4.2
8,A49C U56C U82G,≤ -4.2
9,A49G G140C,-3.88
10,A49C G83U,≤ -4.2
11,A49C C51G C69A G84C U104G C105G A106U A122U,≤ -4.2
12,G48C G84A A121G U134A G143A,-3.91
13,G48A G80C G94A C96U C99G,-3.97
14,A49U U53A A91U,≤ -4.2
15,A47U C93G A106C,≤ -4.2
16,A47C U90G A119U G126A C131G U134G,≤ -4.2
17,A49C U56A A60U,≤ -4.2
18,A49C C57A C87U C116G,≤ -4.2
19,A49C C87U C96A C114G C116U A121U,≤ -4.2
20,G48C U61A U77A G126U,≤ -4.2
21,A49C A52C U55A C93U C105U U127C,≤ -4.2
22,A49U G86A C87G A106C G136U A150C,≤ -4.2
23,A47U C69U C93A A107C A115C,≤ -4.2
24,A49G G50A C54A A66G U82A C108U C125A,≤ -4.2

row,Variant,polymerase ribozyme fitness (log ratio)
1,A47G A49C A52G G81U G83C U134A,≤ -4.2
2,A49U G70C G117C,≤ -4.2
3,G50A A64C U82G U102G,≤ -4.2
4,G48C C57A C75G G83U A106G A107G A113U,≤ -4.2
5,G48C C69A C149U,-2.77
6,A49C G58C U82G A113U,≤ -4.2
7,G48C A60G U61A C85U,≤ -4.2
8,A49C G71C U101G A137U A150U,≤ -4.2
9,A47U G92U,-0.338
10,G48C G50C G88U C93U G126A G141U G143U,≤ -4.2
11,G48C A49G U55G A66U C85U A97C G126C,≤ -4.2
12,A49G C99U A150C,≤ -4.2
13,A47G C51G A52U U53A U56C C57A A66C,≤ -4.2
14,A49G C76A G94U A147G,≤ -4.2
15,G48A U135A,-0.864
16,G48C U55A A107U U111G,≤ -4.2
17,G48C U61A C69G G84U G126A,≤ -4.2
18,A47C G50A U53A G83A G92C G143U,≤ -4.2
19,A49U U53G C54A G74A G94A G152U,≤ -4.2
20,G50A A142C,-3.12
21,A47C G59C U90A A106U A110C U139A,≤ -4.2
22,A49C U144A,≤ -4.2
23,A49C C125A,≤ -4.2
24,A49U A52C,-0.692

row,Variant,polymerase ribozyme fitness (log ratio)
1,A49C C75G G88C A106G C125A,≤ -4.2
2,A49C C69A A73U G94A C103U,≤ -4.2
3,A47U G48U G50A C54U C79A G84U C87U,≤ -4.2
4,G48A C96U A98G,-0.496
5,A49C G133C,≤ -4.2
6,A47G A113C A119C A137G G140U,≤ -4.2
7,A49G G50A C57U G88U A119C,≤ -4.2
8,A49U C75A G92A A119U U130A A147U G152A,≤ -4.2
9,A49C A97U,≤ -4.2
10,G50A G59C U90G,≤ -4.2
11,A49C G80C G92A A106U A113C C118U G141U G143U C149G,≤ -4.2
12,G50A C57A C85A A91C A98C A121U G128U U135G A142U G143A,≤ -4.2
13,G48C U55A,-0.498
14,G48A U55A U90G C96A,≤ -4.2
15,A47U U101G C116G,-2.38
16,A47U G84C C93U,≤ -4.2
17,A49C C93A C96A C103G A115G A138U,≤ -4.2
18,G48C U55G C75A C93G,≤ -4.2
19,A49G G68U A73U G81A U82C G83A U148G,≤ -4.2
20,A49C C63G C87U C93U U102G C116G U144A U145G C149U,≤ -4.2
21,A49U C54U,-1.34
22,A49U C99A A147U,≤ -4.2
23,A47U G48C G68A C105A A113G U135C,≤ -4.2
24,A49U C57A G83U C95U C149U,≤ -4.2

row,Variant,polymerase ribozyme fitness (log ratio)
1,G50A C54G C79G C85A,≤ -4.2
2,A49C U55A G143C,≤ -4.2
3,G48U U53A U77G,≤ -4.2
4,A49U U53A G86A C87A A89G C114U,≤ -4.2
5,A47C G65A C75U C76A U102A U130G,≤ -4.2
6,A47G A52U G84U G86C C114G U145A,≤ -4.2
7,G48C U61A C85U G92A C103A C105U,≤ -4.2
8,A49G C79G C93G C99A U127C G140A,≤ -4.2
9,G48U A106G,-1.48
10,A49C A66C U102G,≤ -4.2
11,A49G C57G G74C A107U U134G,≤ -4.2
12,A49C C75G G83U G141A U146A,≤ -4.2
13,A47C G48A G86C,≤ -4.2
14,G48U A52C G58U C79U G88U G126U,≤ -4.2
15,G48A U55A C96G A115G A119U A137C G141C A142C,≤ -4.2
16,A49C G84C,≤ -4.2
17,G48C G84C C85A A110U C125A,≤ -4.2
18,G50A C93G A106G C114A,≤ -4.2
19,G50A A91U C99U C103G C108U A137C G141C,≤ -4.2
20,A49C G81U G84U C125G G141C A150U,≤ -4.2
21,G48C U61A A73C C79G G83C C87G C125U,≤ -4.2
22,G48A C75A U78C A147G,≤ -4.2
23,A49U U61A G83C C85A C87G,≤ -4.2
